Measured values: the supplement of paper PMC8728848
This is one part of the list.

Tests used:
Assay in all cases: glycan array binding signal (z-score within array); higher = stronger binding
Details in all cases: glycan notation: IUPAC condensed, linker removed
[1] = biological target: Neu5Ac(a2-3)Gal(b1-4)GlcNAc(b1-6)GalNAc
Method in brief: (§1)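 Glycan array binding is given as a within-array Z-score, which can be read as non-binding when negative. The arrays, 3228 of them, came from the Consortium for Functional Glycomics database and were retained only where the protein sequence was available. Z-scores were averaged across arrays of the same protein sequence at different concentrations or buffers and across linkers.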

[2] = biological target: Neu5Ac(a2-3)Gal(b1-4)GlcNAc(b1-6)[Gal(b1-3)]GalNAc
Method in brief: as §1

[3] = biological target: Neu5Ac(a2-3)Gal(b1-4)GlcNAc(b1-6)[Neu5Ac(a2-3)Gal(b1-3)]GalNAc
Method in brief: as §1

[4] = biological target: Neu5Ac(a2-3)Gal(b1-4)GlcNAc6S
Method in brief: as §1

[5] = biological target: Neu5Ac(a2-3)Gal(b1-4)[Fuc(a1-3)]GlcNAc
Method in brief: as §1

[6] = biological target: Neu5Ac(a2-3)Gal(b1-4)[Fuc(a1-3)]GlcNAc(b1-2)Man
Method in brief: as §1

[7] = biological target: Neu5Ac(a2-3)Gal(b1-4)[Fuc(a1-3)]GlcNAc(b1-3)Gal
Method in brief: as §1

[8] = biological target: Neu5Ac(a2-3)Gal(b1-4)[Fuc(a1-3)]GlcNAc(b1-3)Gal(b1-4)GlcNAc
Method in brief: as §1

[9] = biological target: Neu5Ac(a2-3)Gal(b1-4)[Fuc(a1-3)]GlcNAc(b1-3)Gal(b1-4)[Fuc(a1-3)]GlcNAc(b1-3)Gal(b1-4)[Fuc(a1-3)]GlcNAc
Method in brief: as §1

[10] = biological target: Neu5Ac(a2-3)Gal(b1-4)[Fuc(a1-3)]GlcNAc(b1-3)GalNAc
Method in brief: as §1

[11] = biological target: Neu5Ac(a2-3)Gal(b1-4)[Fuc(a1-3)]GlcNAc(b1-6)[Gal(b1-3)]GalNAc
Method in brief: as §1

[12] = biological target: Neu5Ac(a2-3)Gal(b1-4)[Fuc(a1-3)]GlcNAc(b1-6)[Neu5Ac(a2-3)Gal(b1-3)]GalNAc
Method in brief: as §1

[13] = biological target: Neu5Ac(a2-3)Gal(b1-4)[Fuc(a1-3)]GlcNAc6S
Method in brief: as §1

[14] = biological target: Neu5Ac(a2-3)Gal6S(b1-4)GlcNAc
Method in brief: as §1

[15] = biological target: Neu5Ac(a2-3)Gal6S(b1-4)[Fuc(a1-3)]GlcNAc
Method in brief: as §1

Neu5Ac(a2-3)GalNAc = biological target: Neu5Ac(a2-3)GalNAc
Method in brief: as §1

[16] = biological target: Neu5Ac(a2-3)GalNAc(b1-4)GlcNAc
Method in brief: as §1

[17] = biological target: Neu5Ac(a2-3)[GalNAc(b1-4)]Gal(b1-4)Glc
Method in brief: as §1

[18] = biological target: Neu5Ac(a2-3)[GalNAc(b1-4)]Gal(b1-4)GlcNAc
Method in brief: as §1

[19] = biological target: Neu5Ac(a2-3)[GalNAc(b1-4)]Gal(b1-4)GlcNAc(b1-3)GalNAc
Method in brief: as §1

[20] = biological target: Neu5Ac(a2-3)[Neu5Ac(a2-6)]GalNAc
Method in brief: as §1

Neu5Ac(a2-6)Gal = biological target: Neu5Ac(a2-6)Gal
Method in brief: as §1

[21] = biological target: Neu5Ac(a2-6)Gal(b1-3)GlcNAc(b1-3)[Gal(b1-4)GlcNAc(b1-6)]Gal(b1-4)Glc
Method in brief: as §1

Neu5Ac(a2-6)Gal(b1-4)Glc = biological target: Neu5Ac(a2-6)Gal(b1-4)Glc
Method in brief: as §1

[22] = biological target: Neu5Ac(a2-6)Gal(b1-4)GlcNAc
Method in brief: as §1

[23] = biological target: Neu5Ac(a2-6)Gal(b1-4)GlcNAc(b1-2)Man
Method in brief: as §1

[24] = biological target: Neu5Ac(a2-6)Gal(b1-4)GlcNAc(b1-2)Man(a1-3)Man(b1-4)GlcNAc(b1-4)GlcNAc
Method in brief: as §1

[25] = biological target: Neu5Ac(a2-6)Gal(b1-4)GlcNAc(b1-2)Man(a1-3)[Gal(b1-4)GlcNAc(b1-2)Man(a1-6)]Man(b1-4)GlcNAc(b1-4)GlcNAc
Method in brief: as §1

[26] = biological target: Neu5Ac(a2-6)Gal(b1-4)GlcNAc(b1-2)Man(a1-3)[GlcNAc(b1-2)Man(a1-6)]Man(b1-4)GlcNAc(b1-4)GlcNAc
Method in brief: as §1

[27] = biological target: Neu5Ac(a2-6)Gal(b1-4)GlcNAc(b1-2)Man(a1-3)[GlcNAc(b1-4)][Neu5Ac(a2-6)Gal(b1-4)GlcNAc(b1-2)Man(a1-6)]Man(b1-4)GlcNAc(b1-4)GlcNAc
Method in brief: as §1

[28] = biological target: Neu5Ac(a2-6)Gal(b1-4)GlcNAc(b1-2)Man(a1-3)[Man(a1-6)]Man(b1-4)GlcNAc(b1-4)GlcNAc
Method in brief: as §1

[29] = biological target: Neu5Ac(a2-6)Gal(b1-4)GlcNAc(b1-2)Man(a1-3)[Neu5Ac(a2-3)Gal(b1-4)GlcNAc(b1-2)Man(a1-6)]Man(b1-4)GlcNAc(b1-4)GlcNAc
Method in brief: as §1

[30] = biological target: Neu5Ac(a2-6)Gal(b1-4)GlcNAc(b1-2)Man(a1-3)[Neu5Ac(a2-6)Gal(b1-4)GlcNAc(b1-2)Man(a1-6)]Man(b1-4)GlcNAc(b1-4)GlcNAc
Method in brief: as §1

[31] = biological target: Neu5Ac(a2-6)Gal(b1-4)GlcNAc(b1-2)Man(a1-3)[Neu5Ac(a2-6)Gal(b1-4)GlcNAc(b1-2)Man(a1-6)]Man(b1-4)GlcNAc(b1-4)[Fuc(a1-6)]GlcNAc
Method in brief: as §1

[32] = biological target: Neu5Ac(a2-6)Gal(b1-4)GlcNAc(b1-2)Man(a1-6)Man(b1-4)GlcNAc(b1-4)GlcNAc
Method in brief: as §1

[33] = biological target: Neu5Ac(a2-6)Gal(b1-4)GlcNAc(b1-2)Man(a1-6)[Gal(b1-4)GlcNAc(b1-2)Man(a1-3)]Man(b1-4)GlcNAc(b1-4)GlcNAc
Method in brief: as §1

[34] = biological target: Neu5Ac(a2-6)Gal(b1-4)GlcNAc(b1-2)Man(a1-6)[GlcNAc(b1-2)Man(a1-3)]Man(b1-4)GlcNAc(b1-4)GlcNAc
Method in brief: as §1

[35] = biological target: Neu5Ac(a2-6)Gal(b1-4)GlcNAc(b1-2)Man(a1-6)[Man(a1-3)]Man(b1-4)GlcNAc(b1-4)GlcNAc
Method in brief: as §1

[36] = biological target: Neu5Ac(a2-6)Gal(b1-4)GlcNAc(b1-2)[Neu5Ac(a2-6)Gal(b1-4)GlcNAc(b1-4)]Man(a1-3)[GlcNAc(b1-4)][Neu5Ac(a2-6)Gal(b1-4)GlcNAc(b1-2)[Neu5Ac(a2-6)Gal(b1-4)GlcNAc(b1-6)]Man(a1-6)]Man(b1-4)GlcNAc(b1-4)GlcNAc
Method in brief: as §1

[37] = biological target: Neu5Ac(a2-6)Gal(b1-4)GlcNAc(b1-2)[Neu5Ac(a2-6)Gal(b1-4)GlcNAc(b1-4)]Man(a1-3)[GlcNAc(b1-4)][Neu5Ac(a2-6)Gal(b1-4)GlcNAc(b1-4)Man(a1-6)]Man(b1-4)GlcNAc(b1-4)GlcNAc
Method in brief: as §1

[38] = biological target: Neu5Ac(a2-6)Gal(b1-4)GlcNAc(b1-2)[Neu5Ac(a2-6)Gal(b1-4)GlcNAc(b1-6)]Man(a1-6)[Neu5Ac(a2-6)Gal(b1-4)GlcNAc(b1-2)Man(a1-3)][GlcNAc(b1-4)]Man(b1-4)GlcNAc(b1-4)GlcNAc
Method in brief: as §1

[39] = biological target: Neu5Ac(a2-6)Gal(b1-4)GlcNAc(b1-3)Gal(b1-3)GlcNAc
Method in brief: as §1

[40] = biological target: Neu5Ac(a2-6)Gal(b1-4)GlcNAc(b1-3)Gal(b1-4)GlcNAc
Method in brief: as §1

[41] = biological target: Neu5Ac(a2-6)Gal(b1-4)GlcNAc(b1-3)Gal(b1-4)GlcNAc(b1-2)Man(a1-3)[Neu5Ac(a2-6)Gal(b1-4)GlcNAc(b1-3)Gal(b1-4)GlcNAc(b1-2)Man(a1-6)]GalNAc
Method in brief: as §1

[42] = biological target: Neu5Ac(a2-6)Gal(b1-4)GlcNAc(b1-3)Gal(b1-4)GlcNAc(b1-3)Gal(b1-4)GlcNAc
Method in brief: as §1

B1: rCnSL-proB (Clitocybe nebularis) (protein)
chain: PTFSPIFALLAFLPFGTLASLLPQTQLVFRINPNLPGPNDVFVGYRGTNNVVGAIYERDGIKDTPMNNGADAELGPGSYITDDLFTAQIFASGSAGNNPGTTATVCKIYADGVQWRGAPKGYLPVLYFGNGQAAEQTRQTYLQGLDIPGTAIRFANLAKTPNQGPTAPRQMVVPSGGLQTLLKASCFPANHAALPQVLSYFNVRAALPPGWNIRTGPEFPNWTN
glycan array binding signal (z-score) [1]: -0.729 | glycan array binding signal (z-score) [2]: 0.329 | glycan array binding signal (z-score) [3]: -0.239 | glycan array binding signal (z-score) [4]: -0.914 | glycan array binding signal (z-score) [5]: -0.485 | glycan array binding signal (z-score) [6]: -2.18 | glycan array binding signal (z-score) [7]: 0.344 | glycan array binding signal (z-score) [8]: -0.211 | glycan array binding signal (z-score) [9]: -0.534 | glycan array binding signal (z-score) [10]: 0.245 | glycan array binding signal (z-score) [11]: 1.12 | glycan array binding signal (z-score) [12]: -0.168 | glycan array binding signal (z-score) [13]: -0.393 | glycan array binding signal (z-score) [14]: 0.829 | glycan array binding signal (z-score) [15]: -0.882 | glycan array binding signal (z-score) (Neu5Ac(a2-3)GalNAc): -0.922 | glycan array binding signal (z-score) [16]: 0.049 | glycan array binding signal (z-score) [17]: 0.279 | glycan array binding signal (z-score) [18]: -0.499 | glycan array binding signal (z-score) [19]: 1.25 | glycan array binding signal (z-score) [20]: -0.488 | glycan array binding signal (z-score) (Neu5Ac(a2-6)Gal): -0.004 | glycan array binding signal (z-score) [21]: -0.672 | glycan array binding signal (z-score) (Neu5Ac(a2-6)Gal(b1-4)Glc): 0.084 | glycan array binding signal (z-score) [22]: -0.527 | glycan array binding signal (z-score) [23]: 0.328 | glycan array binding signal (z-score) [24]: -0.31 | glycan array binding signal (z-score) [25]: -0.139 | glycan array binding signal (z-score) [26]: -0.339 | glycan array binding signal (z-score) [27]: -0.441 | glycan array binding signal (z-score) [28]: 0.012 | glycan array binding signal (z-score) [29]: -0.255 | glycan array binding signal (z-score) [30]: -0.183 | glycan array binding signal (z-score) [31]: 0.037 | glycan array binding signal (z-score) [32]: -0.465 | glycan array binding signal (z-score) [33]: -0.252 | glycan array binding signal (z-score) [34]: -0.553 | glycan array binding signal (z-score) [35]: 0.08 | glycan array binding signal (z-score) [36]: -0.757 | glycan array binding signal (z-score) [37]: -0.186 | glycan array binding signal (z-score) [38]: -0.418 | glycan array binding signal (z-score) [39]: 0.789 | glycan array binding signal (z-score) [40]: -0.804 | glycan array binding signal (z-score) [41]: 0.728 | glycan array binding signal (z-score) [42]: 0.146
